Reference: PubChem BioAssay AID1347417 (National Center for Advancing Translational Sciences (NCATS), 2020)
Screen size: about 120,000 compounds; about 5,300 (4.4%) were called active. The inconclusive results got no clear call from the source; some entries with a clear call stand among them for comparison. Calls follow the shape of the dose curve; as a rule, active = well fitted inhibition curve with a large enough effect; inconclusive = small, poorly fitted or top-dose-only effect; inactive = no such curve, though single readings can be large or run the other way. Potencies of inconclusive entries are doubtful fits and often do not repeat.

Test: qHTS Primary assay for Inhibitors of Plasmodium falciparum Dd2 growth in vitro; also: nearly all actives have a fitted effect of over 65% in size;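 as to activity, negative = inhibition: plate controls were DMSO vehicle for no effect and reference drug for full effect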
Settings: P. falciparum Dd2 growth, SYBR Green, 72 h; activity, negative = inhibition: at 28.9 µM (top of the series) unless noted; series mostly up to 28.9 µM
Procedure, shortened: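 Readout: SYBR Green fluorescence, 485 nm excitation, 535 nm emission, after ~16 h lysis at 37C. Before that, Dd2-infected red cells (2.5% hematocrit) grew 72 h with compound, 29 uM top final concentration.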
Potency is read from the fitted curve at half-maximal effect; tags tell the direction and shape of the fitted curve.

Row | Compound | Potency | activity, negative = inhibition
1 | CCn1cc(C(=O)NCCc2ccccc2)c(=O)c2cc(S(=O)(=O)N3CCOCC3)ccc21 | inactive | –
2 | CCc1ccc(NC(=O)CSC2=Nc3ccccc3C3=NC(CCC(=O)NCc4cccs4)C(=O)N23)cc1 (stereo unspecified) | inconclusive: 17.8 µM [inhibitor, single point] | –
3 | OC(c1nc(Nc2ccc(Cl)c(C(F)(F)F)c2)n[nH]1)C1CC1 (stereo unspecified) | inactive | –
4 | Cc1oc(-c2cccc(C(F)(F)F)c2)nc1CN(C)Cc1cnn(C)c1 | inconclusive: 12.6 µM [inhibitor, partial curve, poor fit] | –
5 | Cn1c(=O)c2ccnn2c2ccc(C(=O)NCC3CCN(Cc4cccc(F)c4)CC3)cc21 | inconclusive: 1 µM [inhibitor, full curve, poor fit] | –
6 | COc1ccccc1-c1cc(C(=O)NCCc2ccc(Cl)cc2)nc2c1cnn2C | inconclusive: 10 µM [inhibitor, single point] | –
7 | O=C(Nc1c(C(=O)N2CCN(c3ccc(F)cc3)CC2)oc2ccccc12)c1ccco1 | inconclusive: 1.78 µM [inhibitor, partial curve] | –
8 | O=C(c1ccc2ncccc2c1)N1CCCN(c2cc(-c3ccc(Cl)cc3)[nH]n2)CC1 | inconclusive: 3.98 µM [inhibitor, single point] | –
9 | Cc1ccc(Cl)cc1NC(=O)c1oc2ccc(S(=O)(=O)N3CCC4(CC3)OCCO4)cc2c1C | inconclusive: 6.31 µM [inhibitor, partial curve, poor fit] | –
10 | COCCN1C(=O)CS(=O)(=O)C12CCN(C(=O)Cc1cccc(OC)c1)CC2 | inconclusive: 5.62 µM [inhibitor, partial curve, poor fit] | –
11 | Cc1cc(C)c(NC(=O)c2sc3nc(C)cc(C)c3c2N)c(C)c1 | inconclusive: 5.01 µM [inhibitor, partial curve] | –
12 | COc1cc(NC(=O)c2ccc3c(c2)N(C)C2CCCCN2C3=O)cc(OC)c1OC (stereo unspecified) | inconclusive: 3.98 µM [inhibitor, single point] | –
13 | Cc1ccc(-c2cnc([C@@H]3COCCN3Cc3ccncc3)[nH]2)cc1 | inconclusive: 11.2 µM [inhibitor, single point] | –
14 | COc1cccc(N2C(=O)CSC23C(=O)N(CC(=O)Nc2cc(C)ccc2C)c2ccccc23)c1 (stereo unspecified) | active: 8.91 µM | –
15 | Cn1cc(C(NS(=O)(=O)c2cccc3c2OCCO3)C2CC(O)C2)cn1 (stereo unspecified) | inconclusive: 0.0891 µM [inhibitor, full curve, poor fit] | –
16 | COc1ccc(-c2cc(C(=O)NCC3CC3)c3c(C4CCCN4)noc3n2)cc1 (stereo unspecified) | inconclusive: 8.91 µM [inhibitor, partial curve, poor fit] | –
17 | O=C(Cc1cccc(F)c1)N1CCC(Cc2nncn2Cc2ccccc2)C1 (stereo unspecified) | inactive | –
18 | Cc1ccc(NC(=O)N[C@H]2C[C@@](O)(C(=O)N[C@H](Cc3ccccc3)C(N)=O)C[C@@H](O)[C@@H]2O)cc1 | inactive | –
19 | O=C1CCN(C(=O)CCCc2ccccc2)CCCCCCN1 | inconclusive: 17.8 µM [inhibitor, single point] | –
20 | N#Cc1ccc(CN2CC(Oc3ccc(F)c(F)c3)C2)cc1 | – | inconclusive: -48.1% [inhibitor] [at 44.1 µM]
21 | COc1ccc(CCNc2nc3c(c(=O)n(C)c(=O)n3C)n2Cc2ccc(F)cc2)cc1OC | inconclusive: 1 µM [inhibitor, full curve, poor fit] | –
22 | CCOC(=O)c1cc2c(=O)n3ccccc3nc2n(Cc2ccco2)c1=NC(=O)c1cc(C)cc(C)c1 | inconclusive: 12.6 µM [inhibitor, single point] | –

Row | Compound | Potency | activity, negative = inhibition
23 | COC(=O)c1ccc(NC(=O)c2nn(C)c3c2CS(=O)(=O)c2ccccc2-3)cc1 | – | inconclusive: -108% [inhibitor] [at 0.594 µM]
24 | COc1ccc(-c2cc(C(=O)NCC(F)(F)F)c3c(C4CCNC4)nn(C)c3n2)cc1 (stereo unspecified) | inconclusive: 17.8 µM [inhibitor, single point] | –
25 | COc1cc(CN2CCc3nc(Nc4ccc5c(c4)OCCO5)ncc3C2)cc(OC)c1OC | inconclusive: 15.8 µM [inhibitor, single point] | –
26 | Cc1nc([C@H]2CCN(Cc3ccc(C)c(C)c3)C[C@H]2NC(=O)C2CC2)n[nH]1 | inconclusive: 11.2 µM [inhibitor, partial curve, poor fit] | –
27 | O=C1CCN(C(=O)c2cccnc2)CCCC(C(=O)NCCCc2ccccc2)CCN1 (stereo unspecified) | inactive | –
28 | O=C(NCc1ccccc1)c1ccccc1OC1CN(Cc2cccc(F)c2)C1 | inconclusive: 7.08 µM [inhibitor, partial curve, poor fit] | –
29 | c1ccc(CN2CC[C@H](c3nnc(Cc4c[nH]c5ccccc45)o3)C2)cc1 | inconclusive: 12.6 µM [inhibitor, single point] | –
30 | CN1CCC(Cn2ccc3c(N4CCOCC4)nc(-c4cccc(N5CCOCC5)c4)cc32)CC1 | inconclusive: 3.98 µM [inhibitor, single point] | –
31 | O=[S+]1([O-])NC2(CCCN(Cc3ccsc3)C2)CNc2ccccc21 (stereo unspecified) | inconclusive: 7.08 µM [inhibitor, partial curve] | –
32 | O=C(c1ccc2oc(-c3cccc(F)c3)nc2c1)N1CCCCC1CCO (stereo unspecified) | inactive | –
33 | O=C(N[C@@H]1CCC[C@@H]1C(=O)N1CCN(c2ccccc2F)CC1)c1ccncc1 | inactive | –
34 | CCCC(=O)N1Cc2ccccc2CC2(CCCN2CCC)C1 (stereo unspecified) | active: 8.91 µM | –
35 | O=C1NC2(CCN(Cc3ccncc3)CC2)COc2ccccc21 | inconclusive: 2.51 µM [inhibitor, partial curve, poor fit] | –
36 | COc1ccc2oc(CNC(=O)c3cc(CC(C)C)nn3C)nc2c1 | inactive | –
37 | CN1c2cc(C(=O)N3CCN(c4ccccc4)CC3)ccc2C(=O)N2CCCCC21 (stereo unspecified) | inconclusive: 4.47 µM [inhibitor, partial curve, poor fit] | –
38 | Cc1cc(C)n(-c2ccc(F)cc2CN2CCCC(CO)(Cc3ccccc3)C2)n1 (stereo unspecified) | active: 8.91 µM | –
39 | CCN1CCN(CCNC(=O)c2cc(-c3ccc(Cl)cc3)cn2CC)CC1 | inconclusive: 12.6 µM [inhibitor, single point] | –
40 | COc1ccc(CNC(=O)[C@@H]2CCC[C@@H](NC(=O)c3nc4ccccc4s3)CN(C)C(=O)C2)cc1 | inactive | –
41 | COc1ccc(-c2nc3cnccn3c2NCCC(=O)Nc2ccc(C)cc2C)cc1 | inactive | –
42 | O=C(Cc1c[nH]c2ncc(-c3cccc(CO)c3)cc12)NCc1cccnc1 | inconclusive: 5.62 µM [inhibitor, partial curve, poor fit] | –
43 | COc1ccc(NC(=O)COCc2cc(-c3ccco3)on2)cc1Cl | inactive | –
44 | O=C(Nc1ccc(F)c(F)c1)c1ccc(=O)n(Cc2ccc(F)cc2)c1 | inconclusive: 0.112 µM [inhibitor, full curve, poor fit] | –

Row | Compound | Potency | activity, negative = inhibition
45 | O=C(N1CCC(Cc2ccccc2)CC1)C1(c2ccc(Cl)cc2)CCOCC1 | inconclusive: 10 µM [inhibitor, single point] | –
46 | COc1ccccc1-c1[nH]nc2ncc(CN(C)Cc3ccccc3)nc12 | inactive | –
47 | Cc1noc2c(Nc3ccc(C(N)=O)cc3)cc(-c3ccc(F)cc3)nc12 | inactive | –
48 | Cc1nc(N2CCN(C(=O)Cc3ccccc3Cl)CC2)cc(C(F)(F)F)n1 | inactive | –
49 | COc1ccc2cc(C3CN(C(=O)c4ccc(C)cc4OC)CCO3)ccc2c1 (stereo unspecified) | inactive | –
50 | c1ccc(C2=NOC3(CCCN(Cc4cccc5ccccc45)C3)C2)nc1 (stereo unspecified) | inactive | –
51 | CCOC(=O)C1CCN(C(=O)c2ccc(C)c(NC(=O)c3nsc4ccccc34)c2)CC1 | inconclusive: 12.6 µM [inhibitor, single point] | –
52 | CCC(=O)N1CCC(Oc2ncccc2C(=O)N(C)C)C1 (stereo unspecified) | inactive | –
53 | COc1ccc(-c2nc(CN3C(=O)CN=C(c4ccccc4)c4ccccc43)c(C)o2)cc1OC | inconclusive: 6.31 µM [inhibitor, single point] | –
54 | O=C(O)CCCC(=O)N[C@H]1CO[C@H]2[C@@H]1OC[C@@H]2Nc1nccc(-c2ccc(-c3ccccc3)cc2)n1 | inconclusive: 17.8 µM [inhibitor, single point] | –
55 | CCc1cnc(C2CCN(C(=O)OC(C)(C)C)CC2)[nH]1 | – | inconclusive: -113% [inhibitor] [at 44.1 µM]
56 | O=C(c1ccc(Br)o1)N1CC2CC(C1)[C@H]1CCCC(=O)N1C2 (stereo partly specified) | inactive | –
57 | Fc1ccccc1CN1CCOC[C@H]1c1ncc(-c2ccc(Cl)s2)[nH]1 | inconclusive: 2.51 µM [inhibitor, single point] | –
58 | CCn1nccc1C(=O)NCCC1CCN(C(=O)Nc2ccc(C)cc2)CC1 | inconclusive: 10 µM [inhibitor, single point] | –
59 | COc1cccc(C(=O)N2CCC3(CC2)CCN(CCc2ccccc2)c2ccccc2O3)c1 | inconclusive: 1.58 µM [inhibitor, full curve] | –
60 | Cc1ccc(NC(=O)c2oc3ccccc3c2NC(=O)C2CCCCC2)cc1 | inconclusive: 12.6 µM [inhibitor, single point] | –
61 | Cc1nc2ncccn2c1C(=O)N1CCC(c2[nH]ncc2-c2ccccc2)CC1 | inconclusive: 15.8 µM [inhibitor, single point] | –
62 | O=C(c1ccc(SCCO)cc1)N1CCCC(CO)(CC2CC2)C1 (stereo unspecified) | inactive | –
63 | CN(C)c1nccnc1OC1CCN(C(=O)CCC(=O)c2ccc(F)cc2)C1 (stereo unspecified) | active: 5.62 µM | –
64 | Cc1nc(CCNC(=O)C2CCCCC2)no1 | inactive | –
65 | Nc1nc(N)c(S(=O)(=O)c2ccccc2)c(Nc2ccccc2)n1 | inconclusive: 10 µM [inhibitor, single point] | –
66 | COc1cccc(C2C(=O)N(C3CCCCC3)CC(=O)N2CCc2ccc(OC)c(OC)c2)c1 (stereo unspecified) | inconclusive: 11.2 µM [inhibitor, single point] | –
